# In PubChem BioAssay AID624296 (National Center for Advancing Translational Sciences (NCATS), 2012):
# In all, about 350,000 compounds went through this assay and about 9,900 (2.8%) were called active. Inconclusive results, whose numbers are uncertain, are shown with a selection of clear calls. Calls follow the shape of the dose curve; as a rule, active = well fitted activation curve with a large enough effect; inconclusive = small, poorly fitted or top-dose-only effect; inactive = no such curve, though single readings can be large or run the other way. No potency is given beside an inconclusive call; the fits are too rough.
# Assay: A quantitative high throughput screen for small molecules that induce DNA re-replication in MCF 10a normal breast cells. Also: nearly all actives have a fitted effect of over 50% in size. As to activity, positive = re-replication: % of control where 0% means no effect.
# Conditions: MCF 10A DNA re-replication, Hoechst nuclear intensity, 48 h; activity, positive = re-replication: at 46.1 µM (top of the series)
# Potency is read from the fitted curve at half-maximal effect; tags tell the direction and shape of the fitted curve.
Structure (SMILES),Potency,"activity, positive = re-replication"
Cc1c(Cc2ccccc2)c(=O)oc2c(C)c(OCC(=O)N3CCC(C(=O)O)CC3)ccc12,"inconclusive [activator, single point]",
Cc1ccc(NC(=O)CSc2nc3c([nH]c4ccccc43)c(=O)n2C)cc1,"inconclusive [activator, single point]",
CC(=O)c1sc(NC(=O)C2CC(=O)N(Cc3ccco3)C2)nc1-c1ccccc1 (stereo not given),,inactive: 11%
CCN1CCN(C(c2cccnc2)c2cc(Cl)c3cccnc3c2O)CC1 (stereo not given),"inconclusive [activator, single point]",
Oc1oc(-c2ccc(Br)cc2)nc1/C=N/c1ccccn1,"inconclusive [activator, single point]",
CCCN1CCc2c(sc(NC(=O)CCS(=O)(=O)c3ccccc3)c2C(N)=O)C1,active: 20.6 µM,
CCC(=O)OCCNc1cc(Sc2nc3ccccc3[nH]2)c2nonc2c1[N+](=O)[O-],active: 1.3 µM,
CSc1nnc(NC(=O)c2nc(S(=O)(=O)Cc3ccc(C)cc3)ncc2Cl)s1,active: 1.16 µM,
CSc1cccc(NC(=O)C2CCN(S(=O)(=O)c3ccc(F)cc3)CC2)c1,"inconclusive [activator, single point]",
O=C(NCc1cccnc1)c1ccc(COc2ccc(Cl)cc2Cl)o1,,inactive: -1.88%
COC(C/C=C/C(=O)COCc1ccccc1)OC,"inconclusive [activator, single point]",
Nc1c(Cl)cc(C2=NCCn3c2c2ccc([N+](=O)[O-])cc2[n+]3[O-])cc1Cl,"inconclusive [activator, single point]",
CCN(CC)CC(C)(C)C(=O)/C=C/c1ccc(/C=C/C(=O)C(C)(C)CN(CC)CC)cc1,,inactive: 76.4%
COc1ccccc1OCCC(=O)OCC(=O)c1[nH]c(C)c(C(C)=O)c1C,"inconclusive [activator, single point]",
Cc1ncc([N+](=O)[O-])n1CCN1C(=O)c2ccccc2C1=O,,inactive: -4%
CCOc1cc(CNC2CCCC2)ccc1OCc1ccccc1Cl,"inconclusive [activator, single point]",
CC(CCc1ccccc1)N1CCN(C)CC1 (stereo not given),"inconclusive [activator, partial curve, poor fit]",
COc1ccccc1NS(=O)(=O)c1cc(NC(=O)c2ccc(NC(C)=O)cc2)ccc1N1CCOCC1,"inconclusive [activator, single point]",
Cc1ccc2c(c1)C1(SCCS1)C(=O)N2,"inconclusive [activator, single point]",
Cc1cc(N=Cc2c(O)n(-c3ccc4c(c3)OCO4)c(=O)c3ccccc23)ccn1,"inconclusive [activator, single point]",
CCOc1ccc(/C=N/Nc2nc(C)cs2)c(O)c1,"inconclusive [activator, partial curve, poor fit]",
Cc1ccc(-c2csc3ncnc(SCC(N)=O)c23)cc1,,inactive: -0.0862%
CCC1=NN2C(=N)/C(=C\c3ccc(SCc4ccco4)o3)C(=O)N=C2S1,"inconclusive [activator, partial curve, poor fit]",
O=C(NN1C(=O)NC2(CCCCC2)C1=O)c1ccc(-c2ccc(Cl)cc2)o1,,inactive: 14.4%

Structure (SMILES),Potency,"activity, positive = re-replication"
O=C(c1cn(-c2ccccc2)nc1-c1ccccc1)N1CCN(c2ccccn2)CC1,"inconclusive [activator, single point]",
CCS(=O)(=O)c1ncc(CO)n1CCc1ccccc1,,inactive: -1.66%
Cc1ccc(C)c(N2CCN(C(=O)c3csc4ccccc34)CC2)c1,active: 16.4 µM,
CCN1CCN(c2ccc(S(=O)(=O)N3CCCCC3)cc2NC(=O)COc2ccc(F)cc2Cl)CC1,,inactive: 7.97%
N=c1c(S(=O)(=O)c2ccc(Cl)cc2)cc2c(=O)n3ccccc3nc2n1Cc1ccco1,"inconclusive [activator, partial curve, poor fit]",
CCCCc1ccc(NC(=O)CSc2nc(=O)n(CCN3CCOCC3)c3c2CCC3)cc1,,inactive: 20.3%
COCCNC(=O)CN(c1cc(Cl)ccc1OC)S(C)(=O)=O,"inconclusive [activator, single point]",
CCC1CCCCN1CCCNC(=O)Cn1nc(-c2ccccc2)ccc1=O (stereo not given),"inconclusive [activator, single point]",
S=C(Nc1ccc(Cl)c(Cl)c1)NN1CCOCC1,,inactive: -7.77%
CCc1ccccc1NC(=O)CSc1nc2n[nH]c(C)c2c(=N)n1-c1cccc(OC)c1,"inconclusive [activator, single point]",
CCCCN(C)CCNC(=O)CCNC(=O)Cn1ccc2ccccc2c1=O,,inactive: -4.86%
CCn1c(C)nc2cc(C(=O)N/N=C/c3ccc(N4CCOCC4)cc3)ccc21,"inconclusive [activator, full curve, poor fit]",
O=C(N/N=C/c1cccc(Oc2ccccc2)c1)c1cccc(Br)c1,"inconclusive [activator, single point]",
CC(C)NC(=S)N/N=C/c1cc(Br)ccc1O,"inconclusive [activator, single point]",
COc1ccc2c(c1)C(=C(C#N)C#N)C(=O)N2CCc1ccccc1,"inconclusive [activator, single point]",
CNc1nnc(-c2cc3ccccc3oc2=O)s1,"inconclusive [activator, single point]",
COC(=O)c1cc(O)cc(OC)c1Oc1cc(C)cc(O)c1C(=O)O,"inconclusive [activator, single point]",
CCN(CC)CCCNC(=O)/C(=C\c1cccn1C)NC(=O)c1cccs1,,inactive: 6.46%
CN(C)S(=O)(=O)c1ccc(Cl)c(C(=O)Nc2cccc3ncccc23)c1,"inconclusive [activator, partial curve, poor fit]",
O=C(c1ccc(Cl)cc1)N1CCC(O)(CSc2ccc(Cl)cc2Cl)CC1,"inconclusive [activator, single point]",
O=C(COC(=O)c1ncc(Cl)c(Cl)c1Cl)NC1CCS(=O)(=O)C1 (stereo not given),"inconclusive [activator, single point]",
C1CCc2c(nc3nnnn3c2N2CCOCC2)C1,"inconclusive [activator, single point]",
COc1ccc(S(=O)(=O)NCCc2cn3nc(C)c(C)nc3n2)cc1C,"inconclusive [activator, partial curve, poor fit]",
CCOC(=O)C1CCCN(C(=O)CN2C(=O)/C(=C/c3ccc(OC)cc3)Oc3ccccc32)C1 (stereo not given),"inconclusive [activator, single point]",

Structure (SMILES),Potency,"activity, positive = re-replication"
COc1ccc(C(=O)c2sc(Nc3ccccc3)nc2N)cc1OC,"inconclusive [activator, single point]",
COC(=O)c1ccc2c(c1)C(=O)/C(=C/c1ccc(O)cc1)O2,"inconclusive [activator, single point]",
c1cncc(CNc2ccc3c(c2)OCO3)c1,,inactive: 19.2%
O=C(Nc1ccnc(-c2ccncc2)n1)c1cccs1,active: 0.259 µM,
Cc1nn(-c2ccc(N3CCCCC3)nn2)c(C)c1CCC(=O)Nc1ccccc1F,,inactive: 1.99%
O=C(NNC(=S)Nc1ccccc1)C1CCCCC1,"inconclusive [activator, full curve, poor fit]",
NS(=O)(=O)c1cccc(NC(=O)COC(=O)c2cc(-c3ccc(Cl)cc3)nc3ccccc23)c1,"inconclusive [activator, partial curve, poor fit]",
COc1ccccc1NC(=O)Nc1nc(CC(=O)NCc2c(F)cccc2F)cs1,"inconclusive [activator, single point]",
O=C(CCCOc1ccccc1)Nc1cccc([N+](=O)[O-])c1,"inconclusive [activator, single point]",
O=C(O)CCc1[nH]c2ccccc2c1Sc1ccccc1,"inconclusive [activator, single point]",
O=C(NCc1cccs1)c1cc2c(s1)-c1ccccc1OC2,,inactive: 25.1%
CCOc1ccc(N2CC(C(=O)Nc3nnc(Cc4ccc(OC)cc4)s3)CC2=O)cc1 (stereo not given),"inconclusive [activator, partial curve, poor fit]",
O=C(OCCN1CCCCC1)c1ccc(Cl)cc1,,inactive: 18.8%
CCc1ccc(-c2cc(C(=O)N/N=C/c3ccccn3)[nH]n2)cc1,"inconclusive [activator, single point]",
O=[N+]([O-])c1ccc(Sc2cccc3cccnc23)c([N+](=O)[O-])c1,,inactive: -1.08%
Cc1ccc(C(=O)NNC(=O)C2CCN(C(=O)OC(C)(C)C)CC2)cc1,,inactive: -2.24%
CC(C)c1ccc(S(=O)(=O)N(C)C2(C)CCS(=O)(=O)C2)cc1 (stereo not given),"inconclusive [activator, single point]",
CN(C(=O)c1cccc(NC(=O)Cc2ccc(NC(=O)C3CCCN(C(=O)CCc4ccccc4)C3)cc2)c1)C1CCCCC1 (stereo not given),"inconclusive [activator, partial curve]",
CCn1cc(/C=C/c2cc[n+](C)cc2)c2ccccc21,active: 16.4 µM,
N#Cc1ccc(C(=O)Nc2cccc(S(=O)(=O)NC3=NCCC3)c2)cc1,,inactive: -9.1%
Cc1cc(C)cc(OCC(=O)N2CCc3ccccc3C2)c1,"inconclusive [activator, single point]",
COc1ccc(Cc2nnc(NC(=O)c3cc(OC)c(OC)c(OC)c3)s2)cc1OC,"inconclusive [activator, single point]",
